Laboratory results as given in the supplement of paper PMC8007513.
Structures can show the parent of a compound that is named as a salt. ± gives the standard error. The whole screen tested about 1,300 compounds, of which about 130 (10%) showed an effect of 50% or more. This is a selection; strong and weak results do not stand in their true shares.

System: Trichoderma virens ATCC 9645
Test: growth yield (OD600) with compound + IPBC relative to untreated control; higher = less growth inhibition
Settings: compound concentration: 100 uM, IPBC concentration: 200 ng/ml
In short: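 Trichoderma virens ATCC 9645 spores, from potato dextrose agar plates grown for 7 days, were brought to 15,000 spores ml^−1 in potato dextrose broth and dispensed as 100 μl aliquots into 96-well plates. Each aliquot received library compounds at 100 μM final, with or without a biocide at 200 ng ml^−1, before growth at 30 °C and OD600 readings on a BioTek EL800 at 40 h and 72 h. Growth is expressed relative to the control containing neither agent and represents means of duplicate screens.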

Row | Structure (SMILES) | growth yield (40 h) [%] | growth yield (72 h) [%]
1 | CCOC(=O)C1=C[C@]2(CC)CCCN3CCc4c(n1c1ccccc41)[C@@H]32 [Vinpocetine] + CCCCNC(=O)OCC#CI [3-iodo-2-propynyl butylcarbamate (IPBC)] | 89.3 ± 7.9 | 93.2 ± 6.6
2 | O=C(O)CCC(=O)Nc1ccc(S(=O)(=O)Nc2nccs2)cc1 [Succinylsulfathiazole] + CCCCNC(=O)OCC#CI [3-iodo-2-propynyl butylcarbamate (IPBC)] | 95 ± 8.9 | 94.8 ± 5.7
3 | COc1cnc(NS(=O)(=O)c2ccc(N)cc2)nc1 [Sulfameter] + CCCCNC(=O)OCC#CI [3-iodo-2-propynyl butylcarbamate (IPBC)] | 101 ± 7.5 | 101 ± 3.5
4 | Cc1cccc(CN2CCN(C(c3ccccc3)c3ccc(Cl)cc3)CC2)c1 (stereo not given) [Meclozine dihydrochloride] + CCCCNC(=O)OCC#CI [3-iodo-2-propynyl butylcarbamate (IPBC)] | 3.02 ± 1.1 | 3.78 ± 0.63
5 | CNCCC(Oc1ccccc1OC)c1ccccc1 (stereo not given) [Nisoxetine hydrochloride] + CCCCNC(=O)OCC#CI [3-iodo-2-propynyl butylcarbamate (IPBC)] | 88.5 ± 1.8 | 93.86 ± 0.52
6 | CCCCC(C)(O)C/C=C/[C@H]1[C@H](O)CC(=O)[C@@H]1CCCCCCC(=O)OC (mixture of isomers) [Misoprostol] + CCCCNC(=O)OCC#CI [3-iodo-2-propynyl butylcarbamate (IPBC)] | 94.7 ± 3.5 | 102 ± 2.8
7 | CC(=O)N(CC(C)C(=O)O)c1c(I)cc(I)c(N)c1I (stereo not given) [Iocetamic acid] + CCCCNC(=O)OCC#CI [3-iodo-2-propynyl butylcarbamate (IPBC)] | 107 ± 18 | 102 ± 11
8 | COc1cc(C(=O)NC2CCCNC2)cc(OC)c1OC (stereo not given) [Troxipide] + CCCCNC(=O)OCC#CI [3-iodo-2-propynyl butylcarbamate (IPBC)] | 116 ± 3.8 | 106.03 ± 0.1
9 | C[C@]12CC[C@@H]3c4ccc(O)cc4CC[C@H]3[C@@H]1CCC2=O [Estrone] + CCCCNC(=O)OCC#CI [3-iodo-2-propynyl butylcarbamate (IPBC)] | 73.9 ± 2.1 | 81.6 ± 0.84
10 | CN1CC2c3ccccc3Oc3ccc(Cl)cc3C2C1 (stereo not given) [Asenapine maleate] + CCCCNC(=O)OCC#CI [3-iodo-2-propynyl butylcarbamate (IPBC)] | 71 ± 2.7 | 88.5 ± 2.1
11 | c1ccc2[nH]c(-c3cscn3)nc2c1 [Tiabendazole] + CCCCNC(=O)OCC#CI [3-iodo-2-propynyl butylcarbamate (IPBC)] | 4.7652 ± 1.4e-15 | 3.3561 ± 1.3e-15
12 | CCCCCCCN(CC)CCCC(O)c1ccc(NS(C)(=O)=O)cc1 (stereo not given) [Ibutilide fumarate] + CCCCNC(=O)OCC#CI [3-iodo-2-propynyl butylcarbamate (IPBC)] | 85 ± 1.4 | 88.1 ± 0.63
13 | COc1ccc(-c2cc(=O)c3c(O)cc(O[C@@H]4O[C@H](CO[C@@H]5O[C@@H](C)[C@H](O)[C@@H](O)[C@H]5O)[C@@H](O)[C@H](O)[C@H]4O)cc3o2)cc1O [Diosmin] + CCCCNC(=O)OCC#CI [3-iodo-2-propynyl butylcarbamate (IPBC)] | 86.09 ± 0.64 | 92.08 ± 0.21
14 | CC(=O)[C@H]1CC[C@H]2[C@@H]3CC[C@H]4C[C@H](O)CC[C@]4(C)[C@H]3C(=O)C[C@]12C [Alfaxalone] + CCCCNC(=O)OCC#CI [3-iodo-2-propynyl butylcarbamate (IPBC)] | 79.4 ± 8.3 | 90.1 ± 4.9
15 | CCn1cc(C(=O)O)c(=O)c2cnc(N3CCCC3)nc21 [Piromidic acid] + CCCCNC(=O)OCC#CI [3-iodo-2-propynyl butylcarbamate (IPBC)] | 99.9 ± 14 | 99.5 ± 5.3
16 | O=S(=O)(O)CCS [Mesna] + CCCCNC(=O)OCC#CI [3-iodo-2-propynyl butylcarbamate (IPBC)] | 99.12 ± 0.64 | 95.1 ± 1.4
17 | CCCCNC(=O)NS(=O)(=O)c1ccc(C)cc1 [Tolbutamide] + CCCCNC(=O)OCC#CI [3-iodo-2-propynyl butylcarbamate (IPBC)] | 87.4 | 98.58 ± 0.21
18 | CCOC(=O)OC(C)OC1=C(C(=O)Nc2ccccn2)N(C)S(=O)(=O)c2ccccc21 (stereo not given) [Ampiroxicam] + CCCCNC(=O)OCC#CI [3-iodo-2-propynyl butylcarbamate (IPBC)] | 85.3 ± 3 | 91.5 ± 1.9
19 | CC(=O)[C@H]1CC[C@H]2[C@@H]3C[C@H](C)C4=CC(=O)CC[C@]4(C)[C@H]3[C@@H](O)C[C@]12C [Medrysone] + CCCCNC(=O)OCC#CI [3-iodo-2-propynyl butylcarbamate (IPBC)] | 74.8 ± 3 | 86.3 ± 1.8

Row | Structure (SMILES) | growth yield (40 h) [%] | growth yield (72 h) [%]
20 | OCc1cc(C(O)CNCCCCCCOCCCCc2ccccc2)ccc1O (stereo not given) [Salmeterol] + CCCCNC(=O)OCC#CI [3-iodo-2-propynyl butylcarbamate (IPBC)] | 34.9 ± 1.6 | –
21 | CC(=O)OCC(=O)[C@@]12N=C(C)O[C@@H]1C[C@H]1[C@@H]3CCC4=CC(=O)C=C[C@]4(C)[C@H]3[C@@H](O)C[C@@]12C [Deflazacort] + CCCCNC(=O)OCC#CI [3-iodo-2-propynyl butylcarbamate (IPBC)] | 100 ± 15 | 99.8 ± 10
22 | O=C(O)Cc1sc(-c2ccccc2)nc1-c1ccc(Cl)cc1 [Fentiazac] + CCCCNC(=O)OCC#CI [3-iodo-2-propynyl butylcarbamate (IPBC)] | 25.4 | 77.1 ± 16
23 | Cc1nc2n(c(=O)c1CCN1CCC(c3noc4cc(F)ccc34)CC1)CCCC2 [Risperidone] + CCCCNC(=O)OCC#CI [3-iodo-2-propynyl butylcarbamate (IPBC)] | 104 ± 12 | 101 ± 10
24 | CC(=O)Nc1ccc(CC(=O)O)cc1 [Actarit] + CCCCNC(=O)OCC#CI [3-iodo-2-propynyl butylcarbamate (IPBC)] | 93.4 ± 1.6 | 92.2 ± 2.2
25 | CCS(=O)(=O)CCn1c([N+](=O)[O-])cnc1C [Tinidazole] + CCCCNC(=O)OCC#CI [3-iodo-2-propynyl butylcarbamate (IPBC)] | 87.52 ± 0.16 | 89.1 ± 1.3
26 | O=C1CCc2cc(OCCCCc3nnnn3C3CCCCC3)ccc2N1 [Cilostazol] + CCCCNC(=O)OCC#CI [3-iodo-2-propynyl butylcarbamate (IPBC)] | 81.6 ± 3.2 | 91.9 ± 2.7
27 | C[C@]12C/C(=C/O)C(=O)C[C@@H]1CC[C@@H]1[C@@H]2CC[C@@]2(C)[C@H]1CC[C@]2(C)O [Oxymetholone] + CCCCNC(=O)OCC#CI [3-iodo-2-propynyl butylcarbamate (IPBC)] | 112 ± 14 | 105 ± 9.2
28 | CCC1=C(C)CN(C(=O)NCCc2ccc(S(=O)(=O)NC(=O)N[C@H]3CC[C@H](C)CC3)cc2)C1=O [Glimepiride] + CCCCNC(=O)OCC#CI [3-iodo-2-propynyl butylcarbamate (IPBC)] | 100 ± 8.1 | 95.8 ± 6
29 | CC1(C)NC(=O)N(c2ccc([N+](=O)[O-])c(C(F)(F)F)c2)C1=O [Nilutamide] + CCCCNC(=O)OCC#CI [3-iodo-2-propynyl butylcarbamate (IPBC)] | 84.98 ± 0.16 | 88.8 ± 1.4
30 | CCCCC(CC)CNC(=N)NC(=N)NCCCCCCNC(=N)NC(=N)NCC(CC)CCCC (stereo not given) [Alexidine dihydrochloride] + CCCCNC(=O)OCC#CI [3-iodo-2-propynyl butylcarbamate (IPBC)] | 2.5415 ± 3.6e-15 | 2.94 ± 0.21
31 | COC(=O)[C@@H]1[C@H]2C[C@H]3c4[nH]c5ccccc5c4CCN3C[C@@H]2CC[C@@H]1O [Yohimbine hydrochloride] + CCCCNC(=O)OCC#CI [3-iodo-2-propynyl butylcarbamate (IPBC)] | 82.4 ± 1.1 | 89.25 ± 0.73
32 | COc1ccc2cc([C@@H](C)C(=O)O)ccc2c1 [(R) -Naproxen sodium salt] + CCCCNC(=O)OCC#CI [3-iodo-2-propynyl butylcarbamate (IPBC)] | 67.7 ± 2.2 | 81.5 ± 3.5
33 | Nc1nc(=O)c2c([nH]1)NC[C@@H](CNc1ccc(C(=O)N[C@@H](CCC(=O)O)C(=O)O)cc1)N2C=O [Folinic acid calcium salt] + CCCCNC(=O)OCC#CI [3-iodo-2-propynyl butylcarbamate (IPBC)] | 115 ± 3.3 | 101 ± 2.8
34 | CC(C)CN(C[C@@H](O)[C@H](Cc1ccccc1)NC(=O)O[C@H]1CO[C@H]2OCC[C@H]21)S(=O)(=O)c1ccc(N)cc1 [Darunavir] + CCCCNC(=O)OCC#CI [3-iodo-2-propynyl butylcarbamate (IPBC)] | 110 ± 9.7 | 113 ± 6.4
35 | CNC(=O)Oc1ccc2c(c1)[C@]1(C)CCN(C)[C@@H]1N2C [Eserine hemisulfate salt] + CCCCNC(=O)OCC#CI [3-iodo-2-propynyl butylcarbamate (IPBC)] | 85.9 ± 2.4 | 89.9 ± 2.2
36 | O=C1c2cccc3c2[C@H](CCC3)CN1[C@@H]1CN2CCC1CC2 [Palonosetron hydrochloride] + CCCCNC(=O)OCC#CI [3-iodo-2-propynyl butylcarbamate (IPBC)] | 94.5 ± 3.6 | 94.39 ± 0.84
37 | NCC[C@H](O)C(=O)N[C@@H]1C[C@H](N)[C@@H](O[C@H]2O[C@H](CN)[C@@H](O)[C@H](O)[C@H]2O)[C@H](O)[C@H]1O[C@H]1O[C@H](CO)[C@@H](O)[C@H](N)[C@H]1O [Amikacin hydrate] + CCCCNC(=O)OCC#CI [3-iodo-2-propynyl butylcarbamate (IPBC)] | 54.3 ± 3.5 | 85 ± 1.1
38 | O=c1[nH]cnc2c1ncn2[C@H]1CC[C@@H](CO)O1 [Didanosine] + CCCCNC(=O)OCC#CI [3-iodo-2-propynyl butylcarbamate (IPBC)] | 56.5 ± 8.9 | 57.6 ± 4.3
